Experimental data published in paper PMC7819943, “Rice protein-binding microarrays: a tool to detect cis-acting elements near promoter regions in rice”.
This is one part of the list.

These sequences were tested against T1, OsWOX13 (Oryza sativa, UniProt Q5QMM3 1-267) (assay: protein-binding microarray (RPBM); PBS, 2% BSA, 51.3 ng/ul salmon testes DNA, 50 uM zinc acetate, 200 nM TF, 25 C, 1 h; high values mean tight binding). Details: protein: recombinant; tags: N-terminal polyhistidine and DsRed monomer fusion (pET32a); label: CyDye5-dUTP incorporated in the synthesized complementary strand; 3' TTTTT single-stranded linker to array surface; dsDNA, one strand shown.
T1 sequence: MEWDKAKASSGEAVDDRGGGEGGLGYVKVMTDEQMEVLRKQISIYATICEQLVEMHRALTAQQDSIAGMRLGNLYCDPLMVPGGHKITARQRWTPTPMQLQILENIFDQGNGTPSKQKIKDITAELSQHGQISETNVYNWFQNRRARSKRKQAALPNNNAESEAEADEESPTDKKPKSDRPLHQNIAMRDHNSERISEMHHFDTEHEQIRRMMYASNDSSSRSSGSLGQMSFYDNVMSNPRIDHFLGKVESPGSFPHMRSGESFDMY
In short: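 Transcription factors were made in E. coli BL21-CodonPlus as N-terminal fusions to a polyhistidine tag and DsRed, then purified on Ni–NTA. After primer extension with Cy5-dUTP and blocking with 2% BSA, a custom Agilent array was exposed for 1 h at 25 °C to 200 nM protein in PBS, 2% BSA, salmon testes DNA and 50 µM zinc acetate. Washed arrays were scanned on an Axon 4000B, and the binding signal is per-feature fluorescence intensity in arbitrary units.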

| Sequence | binding signal |
| --- | --- |
| CTAAATGAACTGATATATCGCTGACTTGGTTTCCATGCAGCGGAGTCACCTAGTGCAG | 9630 fluorescence intensity (a.u.) |
| GGAGATTGACGAAGTCACCACAGGCGCCTCGCTATCGACGCGGAGTCACCTAGTGCAG | 38300 fluorescence intensity (a.u.) |
| TCCTTCGATCCGATCAATCAAACCTGCCATAGTCATAGTGCGGAGTCACCTAGTGCAG | 6500 fluorescence intensity (a.u.) |
| ATCTTAACCAATGCTGATTGACCACAGATGTTGCCCTTTCCGGAGTCACCTAGTGCAG | 29900 fluorescence intensity (a.u.) |
| TTAAACAAATAGGAAATTGGCGTTATGGGCTCGCTTACTGCGGAGTCACCTAGTGCAG | 11700 fluorescence intensity (a.u.) |
| TGACTGCTGACTGATCAGATGCCTCTTTTGAGTAAATTTTCGGAGTCACCTAGTGCAG | 3170 fluorescence intensity (a.u.) |
| TCTAGTTAGTAATTGAAGTAATGTATACAGTAGCTAGCTGCGGAGTCACCTAGTGCAG | 12400 fluorescence intensity (a.u.) |
| CACGCCACAATTACAATTATACTCCACACTCCGGTAGGCGCGGAGTCACCTAGTGCAG | 3450 fluorescence intensity (a.u.) |
| ACTAATATGACTTAATTAAACATTATCGACACAACATCCACGGAGTCACCTAGTGCAG | 20500 fluorescence intensity (a.u.) |
| TCAGTAACATTATTGGTTAAATTTTAAATTTTGAATAGGCCGGAGTCACCTAGTGCAG | 5870 fluorescence intensity (a.u.) |
| CAGCGTGATTTCCAGAATCCCTTTGTCTTGTTGAGAGATTCGGAGTCACCTAGTGCAG | 4280 fluorescence intensity (a.u.) |
| TCATTAATTAACATTTAAATTTACTTTCATATAATTGTGACGGAGTCACCTAGTGCAG | 37400 fluorescence intensity (a.u.) |
| AGGCGAGTTGGTGATTGACTTGCCAGTTCAATCAACAATTCGGAGTCACCTAGTGCAG | 19700 fluorescence intensity (a.u.) |
| GAAACCTGATGATGCTTGATGGAAATCCATTAGACAGCGTCGGAGTCACCTAGTGCAG | 8850 fluorescence intensity (a.u.) |
| CCTTGTATCTAATAATTACCGTCCTGTAACGTAATCCGGGCGGAGTCACCTAGTGCAG | 4600 fluorescence intensity (a.u.) |
| CAGTGTTAACGGAAGTGATTTAGATGAATATTAAGTATGGCGGAGTCACCTAGTGCAG | 5290 fluorescence intensity (a.u.) |
| TTTGATTTTAATATCTTGCACATAATTATTCGTAGGGTTACGGAGTCACCTAGTGCAG | 29400 fluorescence intensity (a.u.) |
| TAGAACTAGAATAAGCATCAATCAATCTAAGCAAGTCAGCCGGAGTCACCTAGTGCAG | 7560 fluorescence intensity (a.u.) |
| CATTGATTTCGAGCTATGCCAGGTTCGGGGATCTTGATGTCGGAGTCACCTAGTGCAG | 5690 fluorescence intensity (a.u.) |
| TGGATGATGATGAGCAACAGAGACGAGCACCAGAGCTGCACGGAGTCACCTAGTGCAG | 5210 fluorescence intensity (a.u.) |
| TTGTGAGTCAATTACATTGGTTTTAACAGTTAAGGATCAACGGAGTCACCTAGTGCAG | 6900 fluorescence intensity (a.u.) |

| Sequence | binding signal |
| --- | --- |
| GCCGATTGATGATCCCGCATCATTGGAGCTAACAATCTTCCGGAGTCACCTAGTGCAG | 28800 fluorescence intensity (a.u.) |
| ATAAATTTAACTCTAAGAGTTGGGTTTGGAATAGAGTTGTCGGAGTCACCTAGTGCAG | 5850 fluorescence intensity (a.u.) |
| TACATGATGACATAACTATCGAGTTAGTCCAATCCAATTTCGGAGTCACCTAGTGCAG | 5020 fluorescence intensity (a.u.) |
| ATGATTGATTGTAAATTAGGTTGAATAATTGATATATACTCGGAGTCACCTAGTGCAG | 54800 fluorescence intensity (a.u.) |
| GGTTCTTTAATTATCCATCTCTATCTACGAACTTGCAAGACGGAGTCACCTAGTGCAG | 10400 fluorescence intensity (a.u.) |
| TTAAATTTAGGACCGAATTACACGTACGTCAGGCGCGCTCCGGAGTCACCTAGTGCAG | 4510 fluorescence intensity (a.u.) |
| CTGAATAATTATGCCAGTAATTCGCTCTAGTCCAAACCATCGGAGTCACCTAGTGCAG | 9420 fluorescence intensity (a.u.) |
| GACTTAACTGTCCGTGAAACATTGTCCATCCCATCCCATCCGGAGTCACCTAGTGCAG | 3770 fluorescence intensity (a.u.) |
| AGATGATGATGGCCTGGAATTACTAGGCAAGGGGAGCAACCGGAGTCACCTAGTGCAG | 4060 fluorescence intensity (a.u.) |
| CACCCTAAACCCAAATTGATATACGTCTCTTTTCGAAACACGGAGTCACCTAGTGCAG | 7850 fluorescence intensity (a.u.) |
| CTTTTAGATTGCTAGAACATATATATATATATATATAAATCGGAGTCACCTAGTGCAG | 3610 fluorescence intensity (a.u.) |
| GTAGATTAAGCCTGATTTGGAAGAGCATTGAATCAGTTTACGGAGTCACCTAGTGCAG | 17600 fluorescence intensity (a.u.) |
| TACATTTTGACATTTAATTGTCAGCATATACAAACAGTTACGGAGTCACCTAGTGCAG | 4720 fluorescence intensity (a.u.) |
| TGTTAGACTATGCCATCAATTGTAATTGTTGGTTCTGATGCGGAGTCACCTAGTGCAG | 4250 fluorescence intensity (a.u.) |
| GATCCTTTGACAGCTGTTTTGACAATTTCTTAAACTACGACGGAGTCACCTAGTGCAG | 9260 fluorescence intensity (a.u.) |
| AACCATAGTTTGATCAGTTTAATTTATGCACATATCTTTTCGGAGTCACCTAGTGCAG | 3720 fluorescence intensity (a.u.) |
| AATGATGGATTTTATGTGTTCCCCAGATGTCGATGCGCCACGGAGTCACCTAGTGCAG | 24200 fluorescence intensity (a.u.) |
| GCTGATTAGCCAAAGCTGAATTCAGCCAAACTTCAATGTACGGAGTCACCTAGTGCAG | 26600 fluorescence intensity (a.u.) |
| AAATGATGTATAGTTAGGATTGGAGTGGTACTTGAAGGCCCGGAGTCACCTAGTGCAG | 3520 fluorescence intensity (a.u.) |
| TGCTGATGGAACTAGGGGAGGCCTCTTCACGGCTTGGAGGCGGAGTCACCTAGTGCAG | 3900 fluorescence intensity (a.u.) |
| ACAGTTCAATCACAGCAAGAAACTCCTTGTACCCTGATATCGGAGTCACCTAGTGCAG | 15800 fluorescence intensity (a.u.) |
